T1: RBFOX1 RRM RbFoxmut (Fox-RRM*) (Homo sapiens, UniProt Q9NWB1 109-208, R118D;E147R;N151S;E152T)
T1 sequence: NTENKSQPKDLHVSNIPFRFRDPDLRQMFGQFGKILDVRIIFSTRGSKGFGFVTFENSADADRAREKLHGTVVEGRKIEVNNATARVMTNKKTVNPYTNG

B1: GGGUACU (DNA:RNA)
RNA: GGGAGACCGGAAUUCAGAUUGUCCGGGUACUUUAAAUCCCGUCGUAGCCACCA
DNA 1: CAATCTGAATTCCGGTCTCCC
DNA 2: TGGTGGCTACGACGGGATT
B2: CAUUGAG (DNA:RNA)
RNA: B1 RNA with G25C, G26A, G27U, A29G, C30A, U31G
DNA 1: CAATCTGAATTCCGGTCTCCC
DNA 2: TGGTGGCTACGACGGGATT
B3: UAGUCAA (DNA:RNA)
RNA: B1 RNA with G25U, G26A, A29C, C30A, U31A
DNA 1: CAATCTGAATTCCGGTCTCCC
DNA 2: TGGTGGCTACGACGGGATT
B4: CACAGCU (DNA:RNA)
RNA: B1 RNA with G25C, G26A, G27C, U28A, A29G
DNA 1: CAATCTGAATTCCGGTCTCCC
DNA 2: TGGTGGCTACGACGGGATT
B5: UUAAUAA (DNA:RNA)
RNA: GGGAGACCGGAAUUCAGAUUGUCCUUAAUAAUUAAAUCCCGUCGUAGCCACCA
DNA 1: CAATCTGAATTCCGGTCTCCC
DNA 2: TGGTGGCTACGACGGGATT
B6: AAUGUUA (DNA:RNA)
RNA: B5 RNA with U25A, U26A, A27U, A28G, A30U
DNA 1: CAATCTGAATTCCGGTCTCCC
DNA 2: TGGTGGCTACGACGGGATT
B7: CCGUCAA (DNA:RNA)
RNA: B1 RNA with G25C, G26C, A29C, C30A, U31A
DNA 1: CAATCTGAATTCCGGTCTCCC
DNA 2: TGGTGGCTACGACGGGATT
B8: UAGUAGG (DNA:RNA)
RNA: B1 RNA with G25U, G26A, C30G, U31G
DNA 1: CAATCTGAATTCCGGTCTCCC
DNA 2: TGGTGGCTACGACGGGATT
B9: UGACUCG (DNA:RNA)
RNA: B5 RNA with U26G, A28C, A30C, A31G
DNA 1: CAATCTGAATTCCGGTCTCCC
DNA 2: TGGTGGCTACGACGGGATT

Where a chain is given by its changes, count along the chain named. The list shows a part of the results.

This assay deals with T1, RBFOX1 RRM RbFoxmut (Fox-RRM*). As to the kind of experiment: EMSA; HiTS-Eq, 1 nM pool, 10 min; buffer printed only for the single-RNA assays: 10 mM Tris pH 7.5, 150 mM NaCl, 3.4 mM EDTA, 0.001% NP-40, 30 C. Conditions: tags: His6 N-terminal (pET28a); label: 5' 32P. In outline: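 These values rest on relative association constants, computed from read-count changes of each RNA species versus the control reaction and normalised to the cognate motif. Reads came from free RNA recovered by 8% native PAGE after purified RbFox RRM (wild type or mutant) at increasing concentrations was equilibrated for 10 min in 50 µL with 1 nM of a 5′-radiolabelled pool with 7 randomized nucleotides and DNA-annealed flanks.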
(In EMSA bound probe runs differently from free probe, usually more slowly.)
As for B1, the binding signal is 0.0825 KA relative to UGCAUGU.

For the molecule B2, the binding signal was 0.12 KA relative to UGCAUGU.

On to B3, for which the binding signal was 0.0801 KA relative to UGCAUGU.

As to B4, the binding signal is 0.084 KA relative to UGCAUGU.

In the case of B5, the binding signal is 0.103 KA relative to UGCAUGU.

Turning to B6, the binding signal is 0.14 KA relative to UGCAUGU.

In the case of B7, the binding signal is 0.0767 KA relative to UGCAUGU.

B8: the binding signal is 0.11 KA relative to UGCAUGU.

As for B9, the binding signal is 0.172 KA relative to UGCAUGU.
